Inconclusive results and toxic doses are left out.
Test system: L1210 leukemia ip in BDF1 mice, survival T/C
Assay: NCI In Vivo Anticancer Drug Screen. Data for tumor model L1210 Leukemia (intraperitoneal) in B6D2F1 (BDF1) mice
Details: endpoint: mean survival time, schedule: Q01DX001 (ip), vehicle: Klucel (hydroxypropylcellulose) (HPC), higher = longer survival
In short: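 Value reflects the ratio of survival in compound-treated mice to survival in vehicle-treated controls, with both groups carrying the same transplanted tumor.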

CN[C@H]1CCc2cc(OC)c(OC)c(OC)c2-c2ccc(SC)c(=O)cc21
T/C (dose: 25.0 mg/kg/injection): 107 % of control
T/C (dose: 100.0 mg/kg/injection): 111 % of control

From PubChem BioAssay AID248 (DTP/NCI, 2004)
